The list shows a part of the results. Rule as the data show it: active = 3.2 or more and inactive = the rest. The signal is at background level for most entries.
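Also: displayed peptides selected on beads carrying the immobilized SH2 domain, with library peptides lacking any tyrosine serving as negative controls.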

The first experiment has as its target SHP2 C-SH2 domain E139D. The experiment in a line: enrichment score (SH2-bound / input frequency) (ratio); bacterial display of known human phosphotyrosine sites (pTyr-Var adds point mutants) read by sequencing; higher = stronger binding; tyrosines were phosphorylated by kinases first. The following applies: peptide library: pTyr-Var.
Turning to RLLRGYDQSAY [HLA-C_Y137], the enrichment score is inactive: 1.28.

SHSMRYFSTAV [HLA-C_Y31_D33S]: the enrichment score is inactive: 0.893.

For QEEPEYWDQET [HLA-A_Y83_G80E], the enrichment score was inactive: 0.548.

RFLERYIYNRE [HLA-DPB1_Y57]: the enrichment score was inactive: 1.95.

For the molecule AQVDTYCRHNY [HLA-DRB1_Y107_A103Q], the enrichment score is inactive: 1.08.

Turning to EQLRAYLEGTC [HLA-C_Y183], the enrichment score is inactive: 0.739.

Take FIAVGYVDDTQ [HLA-A_Y51]: the enrichment score was inactive: 1.6.

Regarding QEGPEYWDGET [HLA-A_Y83_Q86G], the enrichment score was inactive: 0.562.

Consider RLLRGYDQLAF [HLA-C_Y137_S140L_YF], for which the enrichment score is inactive: 1.32.

On to GKGGSYSQAAC [HLA-B_Y344], for which the enrichment score is inactive: 0.802.

As to ILQSMYGCDVG [HLA-B_Y123_T118I], the enrichment score was inactive: 0.976.

Turning to QEGPEYWDQET [HLA-A_Y83], the enrichment score was inactive: 0.463.

Take LERDIYNREEF [HLA-DPB1_Y59_Y57D]: the enrichment score is inactive: 1.06.

Regarding RFVTRHIFNRE [HLA-DQB1_Y62_Y62H_YF], the enrichment score is inactive: 0.393.

LERYIYNREEL [HLA-DPB1_Y59_F64L]: the enrichment score is inactive: 1.09.

For the molecule LERYIYNRQEF [HLA-DPB1_Y59_E62Q], the enrichment score was inactive: 1.16.

In the case of QEGPEYWDQQT [HLA-A_Y83_E87Q], the enrichment score was inactive: 0.71.

For LERFIYNRQEF [HLA-DPB1_Y59_E62Q_YF], the enrichment score is inactive: 1.1.

On to FIAVGYVDDSQ [HLA-A_Y51_T55S], for which the enrichment score is inactive: 1.52.

The next experiment addresses SHP2 C-SH2 domain wild-type. Described as above. The note with it: peptide library: pTyr-Var.
Consider RLLRGYDQSAY [HLA-C_Y137], for which the enrichment score was inactive: 1.11.

For SHSMRYFSTAV [HLA-C_Y31_D33S], the enrichment score is inactive: 0.756.

With QEEPEYWDQET [HLA-A_Y83_G80E], the enrichment score is inactive: 0.819.

With RFLERYIYNRE [HLA-DPB1_Y57], the enrichment score is inactive: 2.06.

In the case of AQVDTYCRHNY [HLA-DRB1_Y107_A103Q], the enrichment score is inactive: 1.16.

Take EQLRAYLEGTC [HLA-C_Y183]: the enrichment score is inactive: 0.931.

On to FIAVGYVDDTQ [HLA-A_Y51], for which the enrichment score was inactive: 1.34.

On to QEGPEYWDGET [HLA-A_Y83_Q86G], for which the enrichment score was inactive: 0.594.

Regarding RLLRGYDQLAF [HLA-C_Y137_S140L_YF], the enrichment score is inactive: 1.34.

For GKGGSYSQAAC [HLA-B_Y344], the enrichment score was inactive: 0.759.

As to ILQSMYGCDVG [HLA-B_Y123_T118I], the enrichment score is inactive: 0.884.

Take QEGPEYWDQET [HLA-A_Y83]: the enrichment score was inactive: 0.59.

For the molecule LERDIYNREEF [HLA-DPB1_Y59_Y57D], the enrichment score is inactive: 1.06.

On to RFVTRHIFNRE [HLA-DQB1_Y62_Y62H_YF], for which the enrichment score was inactive: 0.246.

LERYIYNREEL [HLA-DPB1_Y59_F64L]: the enrichment score is inactive: 0.997.

Take LERYIYNRQEF [HLA-DPB1_Y59_E62Q]: the enrichment score was inactive: 0.907.

In the case of QEGPEYWDQQT [HLA-A_Y83_E87Q], the enrichment score is inactive: 0.807.

In the case of LERFIYNRQEF [HLA-DPB1_Y59_E62Q_YF], the enrichment score was inactive: 0.831.

Take FIAVGYVDDSQ [HLA-A_Y51_T55S]: the enrichment score is inactive: 1.17.

The next experiment deals with SHP2 N-SH2 domain L43F. Described as above. The note with it: peptide library: pTyr-Var.
As for RLLRGYDQSAY [HLA-C_Y137], the enrichment score was inactive: 1.14.

With SHSMRYFSTAV [HLA-C_Y31_D33S], the enrichment score was inactive: 0.797.

In the case of QEEPEYWDQET [HLA-A_Y83_G80E], the enrichment score is inactive: 0.67.

As for RFLERYIYNRE [HLA-DPB1_Y57], the enrichment score was inactive: 2.38.

Turning to AQVDTYCRHNY [HLA-DRB1_Y107_A103Q], the enrichment score was inactive: 1.21.

As to EQLRAYLEGTC [HLA-C_Y183], the enrichment score was inactive: 0.811.

On to FIAVGYVDDTQ [HLA-A_Y51], for which the enrichment score is inactive: 1.41.

QEGPEYWDGET [HLA-A_Y83_Q86G]: the enrichment score is inactive: 0.589.

Consider RLLRGYDQLAF [HLA-C_Y137_S140L_YF], for which the enrichment score was inactive: 1.12.

In the case of GKGGSYSQAAC [HLA-B_Y344], the enrichment score was inactive: 0.854.

As for ILQSMYGCDVG [HLA-B_Y123_T118I], the enrichment score is inactive: 0.823.

QEGPEYWDQET [HLA-A_Y83]: the enrichment score is inactive: 0.521.

As to LERDIYNREEF [HLA-DPB1_Y59_Y57D], the enrichment score was inactive: 0.83.

For RFVTRHIFNRE [HLA-DQB1_Y62_Y62H_YF], the enrichment score was inactive: 0.234.

For LERYIYNREEL [HLA-DPB1_Y59_F64L], the enrichment score is inactive: 0.806.

For the molecule LERYIYNRQEF [HLA-DPB1_Y59_E62Q], the enrichment score is inactive: 0.788.

Regarding QEGPEYWDQQT [HLA-A_Y83_E87Q], the enrichment score is inactive: 0.649.

For the molecule LERFIYNRQEF [HLA-DPB1_Y59_E62Q_YF], the enrichment score is inactive: 0.893.

For the molecule FIAVGYVDDSQ [HLA-A_Y51_T55S], the enrichment score was inactive: 1.46.

A further experiment concerns the target SHP2 N-SH2 domain T42A. The experiment is described as above. The note with it: peptide library: pTyr-Var.
Turning to RLLRGYDQSAY [HLA-C_Y137], the enrichment score was inactive: 0.927.

Regarding SHSMRYFSTAV [HLA-C_Y31_D33S], the enrichment score is inactive: 0.841.

As to QEEPEYWDQET [HLA-A_Y83_G80E], the enrichment score is inactive: 0.72.

Take RFLERYIYNRE [HLA-DPB1_Y57]: the enrichment score is inactive: 1.66.

With AQVDTYCRHNY [HLA-DRB1_Y107_A103Q], the enrichment score is inactive: 0.777.

Regarding EQLRAYLEGTC [HLA-C_Y183], the enrichment score was inactive: 0.753.

Regarding FIAVGYVDDTQ [HLA-A_Y51], the enrichment score was inactive: 1.43.

As to QEGPEYWDGET [HLA-A_Y83_Q86G], the enrichment score was inactive: 0.645.

Take RLLRGYDQLAF [HLA-C_Y137_S140L_YF]: the enrichment score was inactive: 1.57.

In the case of GKGGSYSQAAC [HLA-B_Y344], the enrichment score is inactive: 0.71.

For ILQSMYGCDVG [HLA-B_Y123_T118I], the enrichment score is inactive: 0.79.

For the molecule QEGPEYWDQET [HLA-A_Y83], the enrichment score is inactive: 0.443.

LERDIYNREEF [HLA-DPB1_Y59_Y57D]: the enrichment score was inactive: 0.627.

As to RFVTRHIFNRE [HLA-DQB1_Y62_Y62H_YF], the enrichment score is inactive: 0.237.

In the case of LERYIYNREEL [HLA-DPB1_Y59_F64L], the enrichment score is inactive: 0.804.

Regarding LERYIYNRQEF [HLA-DPB1_Y59_E62Q], the enrichment score is inactive: 0.697.

Regarding QEGPEYWDQQT [HLA-A_Y83_E87Q], the enrichment score is inactive: 0.639.

Take LERFIYNRQEF [HLA-DPB1_Y59_E62Q_YF]: the enrichment score is inactive: 0.855.

FIAVGYVDDSQ [HLA-A_Y51_T55S]: the enrichment score was inactive: 1.41.

In a further experiment the target is SHP2 N-SH2 domain T52S. Described as above. The note with it: peptide library: pTyr-Var.
Consider RLLRGYDQSAY [HLA-C_Y137], for which the enrichment score is inactive: 1.11.

Take SHSMRYFSTAV [HLA-C_Y31_D33S]: the enrichment score is inactive: 0.785.

For QEEPEYWDQET [HLA-A_Y83_G80E], the enrichment score is inactive: 0.605.

As to RFLERYIYNRE [HLA-DPB1_Y57], the enrichment score was inactive: 2.07.

With AQVDTYCRHNY [HLA-DRB1_Y107_A103Q], the enrichment score is inactive: 1.16.

On to EQLRAYLEGTC [HLA-C_Y183], for which the enrichment score was inactive: 0.829.

As for FIAVGYVDDTQ [HLA-A_Y51], the enrichment score was inactive: 1.56.

For QEGPEYWDGET [HLA-A_Y83_Q86G], the enrichment score was inactive: 0.415.

Take RLLRGYDQLAF [HLA-C_Y137_S140L_YF]: the enrichment score was inactive: 1.61.

Regarding GKGGSYSQAAC [HLA-B_Y344], the enrichment score is inactive: 0.76.

For ILQSMYGCDVG [HLA-B_Y123_T118I], the enrichment score was inactive: 1.

Take QEGPEYWDQET [HLA-A_Y83]: the enrichment score was inactive: 0.493.

Turning to LERDIYNREEF [HLA-DPB1_Y59_Y57D], the enrichment score is inactive: 0.693.

For the molecule RFVTRHIFNRE [HLA-DQB1_Y62_Y62H_YF], the enrichment score was inactive: 0.288.

On to LERYIYNREEL [HLA-DPB1_Y59_F64L], for which the enrichment score was inactive: 1.02.

As to LERYIYNRQEF [HLA-DPB1_Y59_E62Q], the enrichment score was inactive: 0.845.

QEGPEYWDQQT [HLA-A_Y83_E87Q]: the enrichment score was inactive: 0.608.

Take LERFIYNRQEF [HLA-DPB1_Y59_E62Q_YF]: the enrichment score was inactive: 1.15.

Turning to FIAVGYVDDSQ [HLA-A_Y51_T55S], the enrichment score is inactive: 1.59.

The target in a further experiment is SHP2 N-SH2 domain wild-type. Described as above. The following applies: peptide library: pTyr-Var.
In the case of RLLRGYDQSAY [HLA-C_Y137], the enrichment score is inactive: 1.48.

In the case of SHSMRYFSTAV [HLA-C_Y31_D33S], the enrichment score is inactive: 0.842.

For QEEPEYWDQET [HLA-A_Y83_G80E], the enrichment score is inactive: 0.886.

For the molecule RFLERYIYNRE [HLA-DPB1_Y57], the enrichment score was inactive: 1.63.

Turning to AQVDTYCRHNY [HLA-DRB1_Y107_A103Q], the enrichment score is inactive: 1.33.

For the molecule EQLRAYLEGTC [HLA-C_Y183], the enrichment score was inactive: 0.817.

With FIAVGYVDDTQ [HLA-A_Y51], the enrichment score was inactive: 1.23.

Turning to QEGPEYWDGET [HLA-A_Y83_Q86G], the enrichment score was inactive: 0.783.

Take RLLRGYDQLAF [HLA-C_Y137_S140L_YF]: the enrichment score was inactive: 1.4.

For GKGGSYSQAAC [HLA-B_Y344], the enrichment score was inactive: 0.921.

On to ILQSMYGCDVG [HLA-B_Y123_T118I], for which the enrichment score is inactive: 1.13.

In the case of QEGPEYWDQET [HLA-A_Y83], the enrichment score was inactive: 0.668.

As to LERDIYNREEF [HLA-DPB1_Y59_Y57D], the enrichment score is inactive: 0.934.

Regarding RFVTRHIFNRE [HLA-DQB1_Y62_Y62H_YF], the enrichment score is inactive: 0.192.

As to LERYIYNREEL [HLA-DPB1_Y59_F64L], the enrichment score is inactive: 0.827.

Take LERYIYNRQEF [HLA-DPB1_Y59_E62Q]: the enrichment score was inactive: 0.951.

Turning to QEGPEYWDQQT [HLA-A_Y83_E87Q], the enrichment score is inactive: 0.761.

For the molecule LERFIYNRQEF [HLA-DPB1_Y59_E62Q_YF], the enrichment score is inactive: 1.06.

Regarding FIAVGYVDDSQ [HLA-A_Y51_T55S], the enrichment score was inactive: 1.3.

Source of the values: the supplement of paper PMC10369915.
